The campaign covered roughly 43,000 compounds. About 200 (0.47%) were called active. Inconclusive results (about 12%) are left out. The call rests on the fitted dose curve; in most records, active means well fitted cell-killing curve with a large enough effect; inconclusive means small, poorly fitted or top-dose-only effect, or effect the other way; inactive means flat fitted curve, though single readings scatter. The list shows a part of the results.
test: Cell viability qHTS assay in S16 Pmp22-F2sN cells; details: S16 Pmp22-F2sN Schwann cells (luciferase reporters placed in the Pmp22 gene) viability, CellTiter-Glo, 24 h; series mostly up to 57.5 µM; activity change, negative = cytotoxicity: at the top concentration; further: nearly all actives have a fitted effect of over 65% in size
Method in brief: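 Seed 500-1,000 S16 Pmp22-F2sN cells per well in phenol-red-free DMEM with 10% heat-inactivated FBS; pin-add 23 nL compound; incubate 24 h at 37C; add CellTiter-Glo, wait 15 min protected from light; read luminescence.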
On the % scale 0 is the no-effect control and ±100 the full control effect.

| SMILES | activity change, negative = cytotoxicity |
| --- | --- |
| CCCC(=O)Nc1ccc2nc(SCC(=O)N3CCOCC3)sc2c1 | inactive: 1.98% |
| CC(C)OCCCNC(=O)CN1C(=O)c2ccccc2Sc2ncccc21 | inactive: 10.9% |
| O=C(Nc1cccc2c1CCCC2)N1CCOc2ccc(Cl)cc21 | inactive: 4.31% |
| Cc1oc2ncnc(N3CCOCC3)c2c1C(=O)NCc1ccc(Cl)cc1 | inactive: 1.54% |
| N#C/C(=C\c1ccc(-c2cccc(Cl)c2)o1)C(=O)Nc1cccc(C(F)(F)F)c1 | inactive: -25% |
| Fc1ccc(N2CCN(c3ncnc4[nH]ncc34)CC2)cc1 | inactive: -6.1% |
| CCOC(=O)c1cc(-c2ccc(C)cc2)n(CC(=O)Nc2ccc(OC)cc2OC)c1C | inactive: 8.87% |
| Cc1ccc(NC(=O)CSc2nccn2C2CCCC2)cc1Cl | inactive: -1.39% |
| Cc1cccc(C(C)C)c1NC(=O)c1ccc2c(c1)CCCN2S(C)(=O)=O | inactive: -11.5% |
| CCCn1cc(S(=O)(=O)c2cccc(Cl)c2)c(=O)c2cc(F)c(N3CCCC3)cc21 | inactive: -23.4% |
| COc1ccc(N2CCN(C(c3ccc(F)cc3)c3sc4nc(-c5ccco5)nn4c3O)CC2)cc1 (stereo unspecified) | inactive: 2.55% |
| Cc1ccc(OCC(=O)Nc2nonc2-c2ccc(Br)cc2)cc1 | inactive: -3.17% |
| CCc1cc(=O)[nH]c(SCc2nc(-c3ccc(C(F)(F)F)cc3)no2)n1 | inactive: -1.36% |
| CCC(C)NC(=O)c1cnn(-c2cccc(F)c2)c1-n1cccc1 (stereo unspecified) | inactive: -5.29% |
| CC(=O)N1CCCC1c1nc2ccccc2n1Cc1ccccc1F (stereo unspecified) | inactive: 21.1% |
| Cc1ccc(S(=O)(=O)N(CC(=O)NCCSc2ccc(Cl)cc2)c2cccc(Cl)c2)cc1 | inactive: 2.56% |
| CCN1CCN(C(c2ccc(F)cc2)c2sc3nc(-c4ccco4)nn3c2O)CC1 (stereo unspecified) | inactive: 8.32% |
| Cc1ccc(S(=O)(=O)CCC(=O)N2CCN(c3nc4c(C)c(C)ccc4s3)CC2)cc1 | inactive: -28.4% |
| COC(=O)c1cc(C)nc2c1c(=O)nc(SCc1ccccc1Cl)n2C1CC1 | inactive: -16.3% |
| Cc1ccc(OCC(=O)Nc2ccc3nn(-c4ccc(C)cc4)nc3c2)cc1 | inactive: 5.26% |
| CCOC(=O)N1CCC2(CC1)OC(=O)C(C)=C2C(=O)NCc1ccccc1OC | inactive: 10.7% |
| Cn1cnc(S(=O)(=O)N2CCC(C(=O)Nc3ccc(Cl)c(C(F)(F)F)c3)CC2)c1 | inactive: -4.43% |
| COc1ccccc1N1CCN(C(=O)CNS(=O)(=O)c2ccc(Br)s2)CC1 | inactive: -17.6% |
| Cc1nn(CCC(=O)Nc2ccccc2Br)c(=O)c2nn(-c3ccccc3)c(C)c12 | inactive: -1.18% |

| SMILES | activity change, negative = cytotoxicity |
| --- | --- |
| Cc1cccc(CCNC(=O)CCS(=O)(=O)c2cc3c(cc2C)NC(=O)CO3)c1 | inactive: 0.173% |
| CCc1nnc2c(Nc3ccccc3Br)nc3ccccc3n12 | inactive: -0.0239% |
| Cc1cccc(N2C(=O)N(Cc3cccc(C#N)c3)c3ccccc3S2(=O)=O)c1 | inactive: 19% |
| O=C(Cn1c(=O)n(Cc2ccc(C(=O)NCc3ccc4c(c3)OCO4)cc2)c(=O)c2ccccc21)Nc1ccccc1F | inactive: 3.32% |
| CCCNC(=O)c1c(NC(=O)c2ccccc2)sc2c1CCC(C(C)(C)C)C2 (stereo unspecified) | inactive: -8.18% |
| COc1ccc(CCNC(=O)CS(=O)(=O)Cc2nc(-c3cccc(Cl)c3)oc2C)cc1OC | inactive: 5.75% |
| COc1ccc(CNC(=O)c2cccn2-c2nnc(N3CCCCC3)s2)c(OC)c1 | inactive: -1.16% |
| COc1ccc2c(c1)c1c(c(=O)n(-c3cccc(C)c3)c(=O)n1CC(=O)NCc1ccc(C)cc1)n2C | inactive: -1.8% |
| CC(C)(C)c1ccc(C(=O)NC(Cc2c[nH]c3ccccc23)C(=O)OCC(=O)c2ccc(Br)cc2)cc1 (stereo unspecified) | inactive: -0.339% |
| CC(C)N(Cc1nc(-c2ccc(Cl)cc2)no1)C(=O)c1ccco1 | inactive: 27.8% |
| COc1ccc(-n2ccn(CC(=O)Nc3ccc(C)cc3C)c(=O)c2=O)cc1 | inactive: 8.32% |
| COc1ccc(CNC(=O)c2sc3nc4n(c(=O)c3c2C)CCC4)cc1 | inactive: 11.3% |
| CCCc1nnc(NC(=O)C(CC)Sc2nnc3c4ccccc4n(C)c3n2)s1 (stereo unspecified) | inactive: 0.256% |
| Cc1ccc(C(C)C)c(OCC(=O)Nc2ccc(O)c(-c3nc4cc(Cl)ccc4o3)c2)c1 | inactive: 6.37% |
| COC(=O)c1c(C)sc(-c2c(-c3ccc(OC)c(F)c3)[nH]c3c2c(=O)n(C)c(=O)n3C)c1O | inactive: 14.7% |
| CC(C)C(=O)Nc1nnc(S(=O)(=O)N2c3ccccc3CC2C)s1 (stereo unspecified) | inactive: -1.28% |
| COc1cccc(C(c2sc3nc(-c4ccco4)nn3c2O)N2CCN(C)CC2)c1 (stereo unspecified) | inactive: 18.1% |
| COc1ccc(CNC(=O)CN(C)S(=O)(=O)c2ccc3c(c2)c(=O)n(C)c(=O)n3C)cc1 | inactive: 6.9% |
| CCS(=O)(=O)Nc1ccc(-c2cn3c(C)csc3n2)cc1 | inactive: 7.51% |
| COc1ccc(C(=O)Oc2cc(-c3ccc(OC)c(OC)c3)cc(=O)c3c(C)oc(C)c23)cc1 | inactive: -9.06% |
| CCOC(=O)c1c(-c2ccccc2)oc2ccc(OCc3cccc(Br)c3)cc12 | inactive: 8.58% |
| O=C(Cn1cc(C(=O)c2cccs2)c2ccccc21)Nc1ccc(Br)cc1 | inactive: -8.18% |
| CCN(c1cccc(C)c1)S(=O)(=O)c1c(C)nc2sc(C)cn2c1=O | inactive: 11.2% |
| COc1ccccc1CNC(=O)C1CCN(c2nnc(C)c3c(C)n(-c4ccccc4)nc23)CC1 | inactive: 3.69% |

| SMILES | activity change, negative = cytotoxicity |
| --- | --- |
| CC(C)CC(=O)OCc1cc(=O)n2nc(C3CCCCC3)sc2n1 | inactive: 1.1% |
| Cc1ccc2c(=O)cc(C(=O)Nc3c(C(=O)c4ccc(F)cc4)oc4ccccc34)oc2c1C | inactive: 23.1% |
| COc1ccc(NC(=O)CC(C)S(=O)(=O)c2cc3c(cc2C)NC(=O)CO3)cc1OC (stereo unspecified) | inactive: 4.13% |
| O=C(Nc1nnc(S(=O)(=O)N2CCCCCC2)s1)c1ccc(Cl)cc1 | inactive: -0.591% |
| COc1ccc(Nc2c(-c3ccsc3)nc3nc(C)cc(C)n23)cc1 | inactive: -10.4% |
| Cc1ccc(NC(=O)CN2C(=O)CC(c3ccc(C)c(C)c3)=Nc3ccccc32)cc1 | inactive: 7.94% |
| CCC(CC)C(=O)Nc1cc(-c2nc3cccnc3s2)ccc1C | inactive: 10.3% |
| Cc1cccc(C)c1OC(=O)CSc1nnc(-c2ccc3c(c2)OCO3)o1 | inactive: 2.91% |
| CCOC(=O)Cn1c(=O)oc2cc(S(=O)(=O)N3CCN(c4ccc(F)cc4)CC3)ccc21 | inactive: -0.729% |
| Cn1c(C(=O)NCc2cccc(Cl)c2)cc2oc3ccccc3c21 | inactive: -8.82% |
| CC(=O)c1ccc(N2CCN(C(=O)CCCn3c(=O)[nH]c4ccsc4c3=O)CC2)cc1 | inactive: 1.04% |
| O=[N+]([O-])c1ccc(O)c(-c2ccnc3cc(-c4ccccc4)nn23)c1 | inactive: -5.89% |
| COCCCNC(=O)c1ccc(Cn2c(=O)c3cccn3c3cccnc32)cc1 | inactive: -14.3% |
| Cc1nn(CC(=O)NCc2ccc(N(C)C)cc2)c(=O)c2nn(-c3ccccc3)c(C)c12 | inactive: 4.55% |
| COc1ccccc1N1CCN(c2cc(C)nc3nncn23)CC1 | inactive: -14% |
| CCOc1ccc(CNC(=O)CSc2c3c(nc4ccc(Cl)cc24)CCCC3)cc1 | inactive: 14.8% |
| Cc1ccc(CNC(=O)Cn2c3ncccc3c(=O)n2-c2ccc(C)cc2)cc1 | inactive: 2.12% |
| Cc1nc2c(c(C)nn2C(C)(C)C)c(C)c1CCC(=O)Nc1ccc(F)cc1 | inactive: 17.8% |
| Cc1nn2c(=O)cc(COC(=O)c3ccc(NC(=O)COc4ccccc4F)cc3)nc2s1 | inactive: 3.23% |
| Cc1ccc(-n2c(SCC(=O)c3ccccc3)nc3c([nH]c4ccccc43)c2=O)cc1 | inactive: 13.2% |
| CC(C)C(=O)Nc1ccc2nc(SCC(=O)N3CCc4ccccc43)sc2c1 | inactive: 11.5% |
| COc1ccccc1CC(=O)Nc1ccc2nc(Nc3cccc(Cl)c3)cc(C)c2c1 | inactive: -1.27% |
| CCC(=O)N1CCc2cc(S(=O)(=O)Nc3cc(C)ccc3OC)ccc21 | inactive: -8.85% |
| COc1cccc(NC(=O)Cn2c(=O)n(CCCCC(=O)NCc3ccccc3Cl)c(=O)c3ccccc32)c1 | inactive: 14.3% |

| SMILES | activity change, negative = cytotoxicity |
| --- | --- |
| CCCCC(Sc1nc2cc3c(cc2c(=O)n1CCCC(=O)NCc1ccc2c(c1)OCO2)OCO3)C(=O)OCC (stereo unspecified) | inactive: 5.05% |
| O=C(CSc1ncc(S(=O)(=O)c2ccc(Br)cc2)c(=O)[nH]1)Nc1ccc2c(c1)OCCO2 | inactive: 5.88% |
| CC1CCN(C(=O)CSc2nc3ccccc3nc2Cc2ccccc2)CC1 | inactive: 13.5% |
| CCOc1ccccc1N1CCN(S(=O)(=O)c2ccc(C3CCCCC3)cc2)CC1 | inactive: 6.46% |
| COc1ccccc1CNC(=O)c1ccc2c(c1)N(Cc1c(F)cccc1Cl)C(=O)CS2 | inactive: 3.36% |
| O=C(Nc1ccc2oc(-c3cccc(F)c3)nc2c1)c1ccc2ccccc2c1 | inactive: -0.493% |
| CC(C)c1ccc(NC(=O)Cn2cc(S(=O)(=O)Cc3ccccc3Cl)c3ccccc32)cc1 | inactive: -12.4% |
| CCOC(=O)c1c(S(=O)(=O)N2CCC(C(=O)Nc3ccc(F)cc3F)CC2)c(C)n(C)c1C | inactive: -1.31% |
| COc1ccc(Cn2c(CO)cnc2SCc2ccccc2C)cc1 | inactive: -0.827% |
| COc1ccc(CNC(=O)Cc2c(C)c3cc4c(C)coc4c(C)c3oc2=O)cc1OC | inactive: 6.17% |
| CCOc1ccc(CN2C(=O)c3ccccc3C2C(=O)NCCc2ccc(OC)c(OC)c2)cc1 (stereo unspecified) | inactive: 0.831% |
| COc1ccccc1NC(=O)C1=C(C)Nc2ncnn2C1c1cccn1C (stereo unspecified) | inactive: 16.6% |
| Cc1ccc(C)c(NC(=O)C2CCN(c3cc(C)nc4c(-c5ccc(Cl)cc5)c(C)nn34)CC2)c1 | inactive: 4.36% |
| COc1cccc(NC(=O)Cn2cc(C(=O)c3ccco3)c3ccccc32)c1 | inactive: -14.6% |
| COc1ccc(-n2cc(C(=O)Oc3cc(C)cc(C)c3)c3ccccc3c2=O)cc1 | inactive: -7.51% |
| CCOc1ccc(CNS(=O)(=O)c2ccc3c(c2)CCCN3C(C)=O)cc1 | inactive: 0.161% |
| CC(=O)Nc1c(C)nn(-c2ccccc2)c1N1CCC(C(=O)Nc2ccccc2F)CC1 | inactive: -0.886% |
| COc1ccc(NC(=O)c2ccco2)cc1NC(=O)c1c(OC)cccc1OC | inactive: 16.3% |
| O=C(Nc1ccccc1)N(Cc1cccc(Cl)c1)c1ccccn1 | inactive: -0.348% |
| Cn1c2ccccc2c2cnn(CC(=O)NCCCN3CCN(c4ccccc4F)CC3)c(=O)c21 | inactive: -2.67% |
| CCS(=O)(=O)c1nc(S(=O)(=O)c2ccc(C)cc2)c(NC)s1 | inactive: -2.8% |
| Cc1cccc(C(=O)N2CCc3cc(CNS(=O)(=O)c4ccc(F)c(Cl)c4)ccc32)c1 | inactive: -26.8% |
| CCc1ccccc1NC(=O)Cn1ccn(Cc2ccccc2)c(=O)c1=O | inactive: 1.57% |
| CC1CCCCN1C(=O)CCS(=O)(=O)c1cc2c(cc1Cl)NC(=O)CO2 (stereo unspecified) | inactive: 10.9% |
